Results taken from PubChem BioAssay AID463173 (ICCB-Longwood Screening Facility, Harvard Medical School, 2010).
Screen size: about 52,000 compounds; about 4,300 (8.3%) were called active. Cut-off read from the data, not from the text of the source: active = survival mostly below about 52% (no sharp cut-off); inactive = mostly above about 56%. The list shows a part of the results.

These molecules were tested on DeltatarO mutant (assay: growth inhibition of S. aureus wild type versus tarO mutant, primary screen, teichoic acid synthesis inhibitors, RN4220, OD600 (AID 463173)). Conditions: OD600, 18 h, hits give low values, screened at 18.75 µg/mL (by protocol).

Structure (SMILES) | survival
Cc1nc2nc(-c3ccc(Cl)cc3Cl)nn2c(C)c1CCC(=O)Nc1ccc(F)cc1 | inactive: 85%
CCCCN(C)CCCNC(=O)CN1C(=O)COc2ccc(S(=O)(=O)N3CCOCC3)cc21 | inactive: 86%
O=C(O)CCc1ccc(-c2cccs2)[nH]1 | inactive: 91%
Cc1cccc(-c2cc(NC(=O)C(C)(C)C)n(-c3ccccc3)n2)c1 | inactive: 99%
COc1ccc(C(CC(=O)Nc2cccc(C)c2C)N2Cc3ccccc3C2=O)cc1 (stereo not drawn) | inactive: 72%
COc1cc(C2c3c(oc4ccccc4c3=O)C(=O)N2c2nncs2)cc(OC)c1OC (stereo not drawn) | inactive: 73%
Cc1cccc2cc(CNCc3ccco3)c(=O)[nH]c12 | inactive: 78%
O=C(COc1ccc(F)cc1)Nc1ccccc1C(=O)OCc1cc(=O)n2nc(C3CC3)sc2n1 | inactive: 97%
CCOc1ccc(-c2cn3c(n2)sc2cc(C(=O)NCCCc4ccccc4)ccc23)cc1 | inactive: 72%
Cc1nc2nc(SCc3ccc(F)cc3Cl)nn2c(C)c1Cc1ccccc1 | inactive: 81%
COc1ccc(CCNC(=O)CN(c2cc(C(F)(F)F)ccc2Cl)S(C)(=O)=O)cc1 | inactive: 61%
Cc1ccc(OCC(=O)Nc2ccccc2C(=O)OCc2cc(=O)n3ccsc3n2)cc1C | inactive: 82%
O=C(Cn1ccc2cc(S(=O)(=O)N3CCCCC3)ccc21)NCCc1ccc(Cl)cc1 | inactive: 101%
O=C(O)Cc1sc(Nc2ccccc2Cl)nc1-c1ccccc1 | inactive: 81%
CCOC(=O)c1c(NC(=O)Cc2coc3cc(C)ccc23)sc2c1CCCC2 | inactive: 95%
CCc1ccc(NC(=O)c2cc3nc(-c4ccc(C)cc4)cc(C(F)(F)F)n3n2)cc1 | inactive: 54%
COC(=O)c1sc(NC(=O)c2cc3nc(-c4ccc(Br)cc4)cc(C(F)(F)F)n3n2)c(C(=O)OC)c1C | inactive: 58%
COc1ccccc1N1CCN(S(=O)(=O)c2c(C)sc3ncn(CC(=O)Nc4ccc(C(F)(F)F)cc4)c(=O)c23)CC1 | inactive: 71%
CC(=O)c1ccc(NC(=O)C2CCCN(S(=O)(=O)c3ccc4c(c3)CCCN4C(C)=O)C2)cc1 (stereo not drawn) | inactive: 93%
Cc1cc(C)c(NC(=O)CCCN2C(=O)COc3ccc(C)cc32)c(C)c1 | inactive: 111%
CCCCn1c(=O)c(C(=O)OCC)c(O)c2ccccc21 | inactive: 52%
COc1ccc(NC(=O)CSc2nc3cc(OC)c(OC)cc3c3nc(-c4ccccc4)nn23)cc1Cl | inactive: 123%

Structure (SMILES) | survival
COC(=O)c1ccc(NC(=O)C(=O)NCCc2sc(-c3cccc(F)c3)nc2C)cc1 | inactive: 98%
COc1cc(-c2ccno2)ccc1S(=O)(=O)N1CCN(c2ccccc2F)CC1 | inactive: 70%
CCCN(CCC)C(=O)CSc1nc2ccccc2c(=O)n1Cc1ccco1 | inactive: 83%
COc1ccc(CC(=O)NCc2nc3cccnc3n2Cc2ccc(C)cc2)cc1 | inactive: 92%
CCOC(=O)c1cc(S(=O)(=O)N2CCN(c3cc(C)ccc3C)CC2)[nH]n1 | inactive: 77%
CCC1=NN(C(=O)COc2ccccc2C)C(O)(c2ccncc2)C1 (stereo not drawn) | inactive: 90%
Cc1cccc(C)c1N1CC(c2nc3ccccc3n2CC(=O)OC(C)C)CC1=O (stereo not drawn) | inactive: 56%
CCC1CCCCN1C(=O)CSc1ncc(-c2ccc(F)cc2)n1CC (stereo not drawn) | inactive: 79%
COc1ccc(S(=O)(=O)NCC(c2ccco2)N2CCOCC2)cc1 (stereo not drawn) | inactive: 102%
Cc1cc(C)cc(NC(=O)CSc2oc(-c3cccs3)nc2S(=O)(=O)c2ccccc2)c1 | inactive: 138%
CC1CCCCN1C(=O)C12CCC(C)(C(=O)C1)C2(C)C (stereo not drawn) | inactive: 97%
Fc1ccc(-c2cc(-c3ccccc3)c3c(n2)-c2cc(F)ccc2OC3)cc1 | inactive: 76%
Cc1ccc(-c2c(C)n3c4c(=O)n(C)c(=O)n(C)c4nc3n2-c2cccc(O)c2)cc1 | inactive: 111%
Cc1c(NC(=O)c2ccc(OC(C)C)cc2)cccc1-c1nc2ncccc2o1 | inactive: 47%
Cc1ccc(S(=O)(=O)c2cn(CC(=O)Nc3ccc(C)c(Cl)c3)c3ccc(C)cc3c2=O)cc1 | inactive: 96%
Cn1cnc2sc3c(c2c1=O)CCCC3 | inactive: 97%
Cc1cc(F)c(F)c(C(=O)N2CCCCCC2)c1Cl | inactive: 108%
COc1cccc(C(=O)NCCSc2c(-c3ccc(F)cc3)[nH]c3ccccc23)c1OC | inactive: 52%
Cc1ccc(CNC(=O)C2CCCN(S(=O)(=O)c3ccc4c(c3)oc(=O)n4C)C2)cc1 (stereo not drawn) | inactive: 71%
O=C1CN(C(=O)c2ccc(S(=O)(=O)N3CCCCC3)cc2)C(c2ccc(F)cc2)c2cc(F)ccc2N1 (stereo not drawn) | inactive: 55%
Cc1cc(C)cc(-n2nnc(-c3nc(-c4ccc5c(c4)OCO5)no3)c2C)c1 | inactive: 77%
CC(=O)c1ccc(NC(=O)c2cn3c4c(ccc(Cl)c4c2=O)OC(C)C3)cc1 (stereo not drawn) | inactive: 86%

Structure (SMILES) | survival
CCC(=O)N1c2ccc(S(=O)(=O)N3CCN(c4ccccc4)CC3)cc2CC1C (stereo not drawn) | inactive: 99%
COc1cc2c(=O)n(CCC(=O)NCC3CCCO3)c(=O)n(CC(=O)Nc3ccc(C)cc3)c2cc1OC (stereo not drawn) | inactive: 92%
Cc1ccc(S(=O)(=O)C(CNC(=O)C(=O)NCc2ccc(Cl)cc2)c2cccs2)cc1 (stereo not drawn) | inactive: 80%
Cc1ccc(C(=O)NCCn2c(C)cc3ccccc32)cc1C | inactive: 53%
COc1ccc(NC(=O)Cn2c(=O)oc3cc(S(=O)(=O)NC4CCCC4)ccc32)cc1OC | inactive: 93%
CCCNC(=O)c1ccc2c(c1)ncn2-c1ccc(C)cc1C | inactive: 75%
COc1ccc(CNc2ncnc3onc(C)c23)cc1 | inactive: 74%
CCc1ccc(CNC(=O)c2ccc3c(c2)N=C(C)c2cc(C)ccc2S3)cc1 | inactive: 68%
CN(C)CCNC(=O)c1ccc(-n2c(-c3ccccc3)cc3c2CCCC3)cc1 | active: 33%
CC(C)Oc1ccc(CNC(=O)CCCn2c(=O)c3cccn3c3ccccc32)cc1 | active: 45%
CCCS(=O)(=O)Nc1cc(-c2cn3cccc(C)c3n2)ccc1C | inactive: 59%
COc1ccc(-c2cn3nc(N4CCC(C(=O)NCc5ccccc5F)CC4)sc3n2)cc1 | inactive: 91%
Cc1ccc(NCc2cccn2-c2nnc(N3CCC(C(=O)NC(C)C)CC3)s2)cc1 | inactive: 90%
Cc1ccc(S(=O)(=O)N2CCCc3cc(NS(=O)(=O)c4ccc(F)c(C)c4)ccc32)cc1 | inactive: 76%
COc1ccc(-c2cc(C(F)(F)F)c(C#N)c(SCC(=O)Nc3ccc(F)cc3)n2)cc1 | inactive: 69%
Cc1ccc(C(=O)CSc2nc(C)cc(C)c2C#N)cc1 | inactive: 94%
O=C(CSc1nc2ccccc2c(=O)n1-c1ccccc1)N1CCOCC1 | inactive: 85%
CCOc1ccc(-n2c(SCC(=O)N3CCCC3)nc3c([nH]c4ccccc43)c2=O)cc1 | inactive: 98%
CCN(c1cc(C)cc(C)c1)S(=O)(=O)c1nnc(NC(=O)c2cccs2)s1 | active: 25%
CCOc1ccc(-n2c(CCC(=O)O)ccc2-c2ccc(Br)cc2)cc1 | active: 48%
Cc1nc(-c2ccccc2)sc1-c1ccc(SCC(=O)NCc2ccc(F)cc2)nn1 | inactive: 53%
Cn1c(=O)c2c(SCC(=O)N3CCc4ccccc43)nc(-c3ccccc3Cl)nc2n(C)c1=O | inactive: 82%

Structure (SMILES) | survival
Cc1ccc(C(C)C)c(OCC(=O)Nc2cccc(NC(=O)c3ccco3)c2)c1 | active: 10%
CCC(CC)C(=O)NC1CC(=O)N(c2ccc3c(c2)OCCO3)C1 (stereo not drawn) | inactive: 116%
Cc1ccc(-c2nc3cccnc3s2)cc1NC(=O)C(C)C | inactive: 112%
Cc1ccc(-c2ccc(=O)n(Cc3cc(C)ccc3C)n2)cc1 | active: 57%
COc1ccc(C(=O)c2cn(CC(=O)Nc3ccc4c(c3)OCCO4)c3ccc(OC)cc3c2=O)cc1 | inactive: 85%
Cc1oc2ccc(O)c(CN(C)Cc3ccccc3)c2c1C(=O)Nc1cccc(C(F)(F)F)c1 | active: 6%
COc1ccccc1OCCn1c(-c2ccc(Cl)cc2)nc2ccccc2c1=O | inactive: 77%
O=C(CSc1nc(-c2ccccc2)no1)N1CCN(c2ccccc2F)CC1 | inactive: 94%
COc1cccc(C2=CC(c3ccc(OC)c(OC)c3OC)n3ncnc3N2)c1 (stereo not drawn) | inactive: 91%
O=C(Cn1c(=O)nc(-c2ccccc2)c2ccccc21)Nc1ccc(Cl)c(C(F)(F)F)c1 | inactive: 90%
CCN(C(=O)Cc1nc(-c2ccc(OC)cc2)no1)c1cccc(Cl)c1 | inactive: 83%
CCc1ccc(CNC(=O)CCSCc2ccccc2F)cc1 | inactive: 96%
Cc1cccc(NS(=O)(=O)c2ccc3[nH]c(=O)ccc3c2)c1C | inactive: 96%
COc1ccccc1N1CCN(S(=O)(=O)c2c(C)sc3ncn(CC(=O)Nc4cccc(Cl)c4)c(=O)c23)CC1 | inactive: 75%
COC(=O)c1c(-c2ccc(Cl)cc2)noc1N1CCN(c2ccc(OC)cc2)CC1 | inactive: 88%
Cc1ccc2c(c1)NC(=O)C(CC(=O)Nc1cc(Cl)ccc1C)O2 (stereo not drawn) | inactive: 90%
COc1ccc(C2CC(c3c(O)n(C4CCCCC4)c(=O)[nH]c3=O)=Nc3ccccc3S2)cc1 (stereo not drawn) | inactive: 48%
CCn1cc(C(=O)Nc2ccccc2)c(=O)c2ccc(C)nc21 | inactive: 78%
CCOc1ccc(CCNC(=O)CN2C(=O)C(CC)Oc3ccccc32)cc1OCC (stereo not drawn) | inactive: 89%
COC(=O)C1=C(C)OC(N)=C(C#N)C1c1c(C)nn(-c2ccccc2)c1Cl (stereo not drawn) | inactive: 92%
COCC(=O)N(C)c1nnc(-c2ccc(OC)cc2)s1 | inactive: 85%
COc1ccc(C(=O)NCc2nnc(SCC(=O)Nc3ccccc3)n2-c2ccc(F)cc2)cc1 | inactive: 73%
